The whole screen tested about 310,000 compounds, of which about 14,000 (4.5%) showed an effect of 50% or more. Effects have a minus sign here. Some of the results follow.
molecular target: human ether-à-go-go-related gene (hERG) potassium channel (human, UniProt Q12809); assay: primary screen, population patch clamp on CHO cells stably expressing hERG
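Also: peak tail current of the secondary pulse compared with the same well before compound.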

Chain of human ether-à-go-go-related gene (hERG) potassium channel (Q12809 whole entry, looked up): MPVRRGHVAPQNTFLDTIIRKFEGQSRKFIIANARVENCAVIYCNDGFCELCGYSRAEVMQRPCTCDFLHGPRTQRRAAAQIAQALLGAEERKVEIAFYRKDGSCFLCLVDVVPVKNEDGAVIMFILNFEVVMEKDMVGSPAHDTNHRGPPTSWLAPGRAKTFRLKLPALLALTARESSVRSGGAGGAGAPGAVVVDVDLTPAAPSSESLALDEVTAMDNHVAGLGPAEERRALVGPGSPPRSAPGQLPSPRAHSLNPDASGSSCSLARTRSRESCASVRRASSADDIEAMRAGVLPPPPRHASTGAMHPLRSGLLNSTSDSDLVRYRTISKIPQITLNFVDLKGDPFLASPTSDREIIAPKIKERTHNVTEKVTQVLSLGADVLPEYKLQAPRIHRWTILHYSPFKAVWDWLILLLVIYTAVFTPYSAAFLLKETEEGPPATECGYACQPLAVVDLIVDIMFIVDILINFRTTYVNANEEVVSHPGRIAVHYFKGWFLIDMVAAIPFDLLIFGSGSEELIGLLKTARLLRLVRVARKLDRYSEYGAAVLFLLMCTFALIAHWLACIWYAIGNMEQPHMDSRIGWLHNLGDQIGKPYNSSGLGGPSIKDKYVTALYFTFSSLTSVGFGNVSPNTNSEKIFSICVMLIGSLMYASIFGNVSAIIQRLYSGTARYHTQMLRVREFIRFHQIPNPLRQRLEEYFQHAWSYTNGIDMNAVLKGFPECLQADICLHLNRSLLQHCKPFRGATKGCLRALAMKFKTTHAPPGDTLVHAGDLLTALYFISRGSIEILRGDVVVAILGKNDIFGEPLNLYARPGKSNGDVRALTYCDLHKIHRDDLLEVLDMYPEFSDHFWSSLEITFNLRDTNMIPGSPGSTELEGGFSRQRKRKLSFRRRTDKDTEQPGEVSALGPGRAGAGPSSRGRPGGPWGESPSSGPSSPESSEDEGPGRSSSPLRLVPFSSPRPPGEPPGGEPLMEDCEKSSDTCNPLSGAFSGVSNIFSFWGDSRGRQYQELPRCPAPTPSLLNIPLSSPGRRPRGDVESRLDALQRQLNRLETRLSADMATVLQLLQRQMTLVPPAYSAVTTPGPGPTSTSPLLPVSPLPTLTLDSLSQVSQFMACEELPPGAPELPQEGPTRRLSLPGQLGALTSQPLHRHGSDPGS

Structure (SMILES) | hERG current change (%, negative = inhibition) at 10uM [%]
O=C(O)CC/C(=N\Nc1ccc(Cl)cc1)c1cccs1 | 14.9
O=C(Nc1ccccc1)Nc1ccc(Nc2ccccc2)cc1 | 17.5
O=C(c1cc(C2CC2)nc2ccc(Br)cc12)N1N=C(C(F)F)CC1(O)C(F)F (centres unmarked) | -7.89
Cc1ccc(-c2nn(-c3ccccc3)cc2C(=O)OCC(=O)Nc2ncc(Cl)cc2Cl)cc1 | 2.82
Cc1cc(C)nc(N/N=C/c2ccccc2OCc2ccccc2)n1 | 4.6
NC(=O)c1ccc(Nc2ccc3nonc3c2[N+](=O)[O-])cc1 | 4.69
Cc1ccc(N2CCN(CC3CC=CCC3)CC2)cc1 (centres unmarked) | -27.4
COC(=O)CC(=O)CSc1nc2c(cc1C#N)CCC2 | 13
Cc1cccc(N2C(=O)CC(N(C(=O)c3ccco3)c3cccc(C)c3)C2=O)c1 (centres unmarked) | 4.2
CCOC(=O)/C(N=Nc1ccc(Cl)cc1)=C(/O)c1ccc([N+](=O)[O-])cc1 | 1.17
CCN(CC)C(=O)c1[nH]cnc1C(=O)Nc1ccc(Cl)cc1 | 9.48
O=C(CSc1nnnn1-c1ccccc1)Nc1nc(-c2ccccc2)ns1 | 19.9
CSc1cccc(NC(=O)/C=C/c2ccc(Cl)cc2)c1 | -4.08
CC(C)(C)C1CCc2onc(C(=O)NC3CCCC3)c2C1 (centres unmarked) | -42.9
O=C(OCC(=O)c1ccc(Cl)s1)c1ccc2ccccc2n1 | 3.46
COc1ccc(-n2c(=O)c3c4c(sc3n3cnnc23)CC(C)CC4)cc1 (centres unmarked) | 1.32
CC(C)(C)OC(=O)CNC(=O)c1nc[nH]c1C(=O)NCc1ccc(CNC(=O)OC(C)(C)C)cc1 | -16.6
CC(=O)Nc1ccc(S(=O)(=O)N[C@H](C(=O)O)C(C)C)cc1 | 3.17
CN(C(=O)c1ccno1)c1nnc(-c2cnccn2)s1 | 6.99

Structure (SMILES) | hERG current change (%, negative = inhibition) at 10uM [%]
S=c1[nH]nc(-c2ccc(Br)cc2)n1-c1ccc2c(c1)OCCO2 | 9.06
COc1ccccc1NC(=O)CCSc1nnc(-c2ccco2)o1 | 5.01
CC1CCN(c2ccccc2NC(=O)c2cc([N+](=O)[O-])ccc2N2CCOCC2)CC1 | -2.63
O=C(CSc1ccc2nnc(-c3ccc(Cl)cc3)n2n1)N1CCc2ccccc21 | -3.33
CS(=O)(=O)Nc1ccc(C(=O)NC2CCCCC2)cc1 | -0.845
COC(=O)CCC(=O)OC1(C)C(=O)C2=CN(CCCCO)C(c3ccc(OC)cc3)=CC2=C(Br)C1=O (centres unmarked) | 6.94
O=c1[nH]c2ccccc2nc1/C=C/c1ccccc1 | 18.6
Cc1oc2c(c(C)cc3oc(=O)c(CC(=O)NCCCO)c(C)c32)c1C | 24
O=C(Cn1nnc2ccccc2c1=O)NC1CCCc2ccccc21 (centres unmarked) | -0.676
Cc1ccc(NC(=O)COC(=O)CCn2c(C)csc2=O)c([N+](=O)[O-])c1 | -16.9
COc1ccc(/C=N/NC(=O)CCc2n[nH]c(=O)[nH]c2=O)cc1OC | 0.501
CC(C)(C)NS(=O)(=O)c1ccc(CCC(=O)N2CCOCC2)cc1 | -20
Cc1c(C)c2c(OCC(=O)N3CCC[C@H]3C(=O)O)cc3c(c2oc1=O)CCC(C)(C)O3 | 3.8
Cc1ccc(NC(=S)NNC(=O)c2ccccc2O)c(C)c1 | 15.6
COCCn1c(C)cc(C(=O)COC(=O)CCS(=O)(=O)c2ccc(C)cc2)c1C | -24.9
CCOc1c(Br)cc(CNC2CCCCCCC2)cc1OC.Cl | -8.71
CCC1CCc2sc(C(=O)N3CCN(c4ccccn4)CC3)cc2C1 (centres unmarked) | -11.5
O=C(Nc1ccc2c(c1)OCCO2)C1CCN(S(=O)(=O)Cc2ccccc2)CC1 | 12.8
COc1cccc(N2CCN(C(=O)CSc3ccc(F)cc3)CC2)c1 | -38.5

Structure (SMILES) | hERG current change (%, negative = inhibition) at 10uM [%]
Nc1ccc(C(=O)Oc2ccc([N+](=O)[O-])cc2)cc1 | 10.9
O=C(NCc1cccnc1)C1CCCN(S(=O)(=O)c2ccccc2)C1 (centres unmarked) | 9.79
Cc1ccc(C2=NN3C(C2)c2ccccc2OC32C(=O)Nc3ccccc32)cc1 (centres unmarked) | 12.2
O=C1CSC(c2ccncc2)N1Cc1ccccc1 (centres unmarked) | 17
O=[N+]([O-])c1cc(Cl)c(Cl)cc1Cl | 17.9
Cc1ccc2oc(=O)c(/C=C(\O)CC(C)C)nc2c1 | 21.8
O=C(O)c1cc(Cl)c2c(c1)OCO2 | 9.3
O=C1CCCCC/C1=N/Nc1ccc(OCc2ccccc2)cc1 | 17.3
CCCOc1ccc(/C(O)=C2/C(=O)C(=O)N(CCCn3ccnc3)C2c2cccnc2)cc1 (centres unmarked) | -8.08
Cc1cccnc1NCc1ccc(O)c2ncccc12 | 19.5
COCCn1c(N)c(N(Cc2ccccc2)C(=O)Cc2c(Cl)cccc2Cl)c(=O)[nH]c1=O | -14
O=C(CSc1ccc(-c2cccnc2)nn1)Nc1ccccc1C(F)(F)F | 5.77
O=C(CSc1nc2c(c(C(F)(F)F)n1)CCc1ccccc1-2)NCc1ccccc1 | 6.56
Cc1cc(C)cc(C(=O)NC(CC(N)=O)c2ccc(N3CCC(N4CCCCC4)CC3)c([N+](=O)[O-])c2)c1 (centres unmarked) | 9.54
O=C(Cc1c(Cl)cccc1Cl)NC1CC1 | 28.2
CCC(NC(C)C)C(O)c1ccc(O)c(O)c1.CS(=O)(=O)O (centres unmarked) | 19
COc1cccc(/C=C/C(=O)Oc2ccc(C(=O)c3ccc(F)cc3)cc2)c1 | 15
CCOC(=O)Cc1[nH]nc2c1C(C1C=CCCC1)C(C#N)=C(N)O2 (centres unmarked) | -8.29

— paper PMC4336329 (PLoS ONE, 2015)
